Here are results for 2 molecules from publication PMC8954383 (Pharmaceuticals, 2022).

Like-named read-outs stand apart in the source and are kept apart here.

A word on the inhibition: it is the share of the control response that was lost under treatment.

For series [1], the system named is hSERT. The series is described as follows: Total and cell surface hSERT-Flag expression (biotinylation, Western blot). Format: cell-based, human. As to conditions: 2 × Ki concentration (SAG 10 μM, SBG 16 μM), room temperature, 10 min. The protocol: To see if SAG or SBG changes hSERT expression, we measured total and cell surface expression levels of hSERT with or without drug treatments. Total cell lysates were used for measuring total hSERT expression, while cell surface expression of hSERT was determined by using cell surface biotinylation of plasma membrane proteins.
After being labeled with NHS-SS-biotin at 4 °C for 30 min, cells were lysed with lysis buffer. Small portion of lysates analyzed for total hSERT-Flag expression. Cell-surface labelled proteins in the residual solution were captured with streptavidin–agarose and subjected to Western blotting analysis for hSERT-Flag cell surface expression, as described in Section 4. (A) Representative blot of total hSERT-Flag expression. (B) Representative blot of hSERT-Flag cell surface expression. (C) Quantitative analysis for effects of SAG and SBG on hSERT-Flag expression. Graph is a combination of three experiments. All error bars represent SEM.
Cell surface expression of hSERT-Flag was determined using the membrane-impermeant biotinylation reagent sulfo-NHS-SS-biotin as described previously. Briefly, HeLa cells expressing hSERT-Flag were treated twice with NHS-SS-biotin for 20 min on ice. After labeling, the cells were rinsed with 100 mM glycine in phosphate-buffered saline (137 mM NaCl, 2.7 mM KCl, 4.3 mM Na2HPO4, and 1.4 mM KH2PO4, pH 7.3) for 20 min to quench excess biotinylation reagent. Cells were then lysed with lysis buffer (50 mM Tris-HCl, pH 7.5, 150 mM NaCl, 5 mM EDTA, 1% Triton X-100, 0.1% SDS, 0.2 mM phenylmethylsulfonyl fluoride, and 0.5% Sigma protease inhibitor mixture), and biotinylated proteins were captured using streptavidin-agarose in 3 h incubation at 4 °C with gentle agitation. Biotinylated proteins were eluted with 100 μL of SDS-PAGE sample buffer and applied to a 10% SDS-polyacrylamide gel and visualized by Western blotting. hSERT was detected using anti-FLAG M2 monoclonal antibody (1:1000) against the FLAG epitope tag at the C-terminus of hSERT. A horseradish peroxidase-conjugated antimouse IgG (1:10,000) was used to visualize the signal by Super Signal West Femto. The amount of surface expression was determined by quantitative luminescence imaging using a UVP Biochemi imaging system.
(In general: Immunoblotting shows a protein as a band on a membrane.)

The test system of series [2] is acute restraint-stressed rat models. On the set-up: method as in PMID 28800105. As to conditions: 3.6 mg/kg, 7 days, p.o.; cited from earlier work.
Series [3] concerns cell viability in cell proliferation. The series is described as follows: CCK-8 cytotoxicity assay. As to conditions: highest tested concentration 1 mM, data not shown. (In general: Formazan colour is commonly taken as a measure of viable cells.)
For a further series, the target named is hDAT (Homo sapiens, UniProt Q01959). Kind of series: ASP+ uptake by cells expressing hDAT.
The target in the next series is hNET (Homo sapiens, UniProt P23975). Kind of series: ASP+ uptake by cells expressing hNET.
Series [4] addresses T1, hSERT (Homo sapiens, UniProt P31645). The series is described as follows: APP+ uptake by cells expressing hSERT (microplate reader). The settings on record: for Mode of SERT inhibition: decreased Vmax, little change in Km for APP+; for Fold more potency in inhibiting SERT than DAT and NET: from Ki values of Table 1; for Vmax of APP+ transport: control 23.71 ± 1.98; for Effect of preincubation with cells on the parameters of inhibition: preincubation 5 min, data not shown.

Series [5] has as its target T1, hSERT. Kind of series: Confocal fluorescence image analysis of APP+ intracellular accumulation. The settings on record: read-out: Inhibition of APP+ accumulation.
The target in a further series is SERT mutant Y107C (Homo sapiens, UniProt P31645, C109A/Y107C). Kind of series: Cysteine accessibility of SERT mutant Y107C to MTSET (residual APP+ uptake).

Sequence of UniProt P23975 (P23975 whole entry): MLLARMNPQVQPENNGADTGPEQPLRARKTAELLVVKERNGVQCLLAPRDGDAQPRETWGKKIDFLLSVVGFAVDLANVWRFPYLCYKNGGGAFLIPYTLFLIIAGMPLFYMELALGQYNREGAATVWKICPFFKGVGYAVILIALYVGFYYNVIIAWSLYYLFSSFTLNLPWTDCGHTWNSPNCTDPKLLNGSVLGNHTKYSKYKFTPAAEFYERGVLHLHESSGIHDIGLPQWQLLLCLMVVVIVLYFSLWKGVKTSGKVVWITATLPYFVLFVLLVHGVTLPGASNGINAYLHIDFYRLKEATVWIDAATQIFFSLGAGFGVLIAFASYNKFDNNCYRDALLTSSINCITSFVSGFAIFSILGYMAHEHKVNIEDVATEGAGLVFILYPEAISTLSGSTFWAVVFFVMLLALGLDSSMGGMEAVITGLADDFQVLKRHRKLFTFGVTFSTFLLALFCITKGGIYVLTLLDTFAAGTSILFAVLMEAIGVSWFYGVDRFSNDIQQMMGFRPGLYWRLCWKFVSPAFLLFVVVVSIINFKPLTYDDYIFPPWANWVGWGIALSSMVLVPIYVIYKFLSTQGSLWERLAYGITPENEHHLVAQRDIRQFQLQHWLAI
Sequence of UniProt Q01959 (Q01959 whole entry): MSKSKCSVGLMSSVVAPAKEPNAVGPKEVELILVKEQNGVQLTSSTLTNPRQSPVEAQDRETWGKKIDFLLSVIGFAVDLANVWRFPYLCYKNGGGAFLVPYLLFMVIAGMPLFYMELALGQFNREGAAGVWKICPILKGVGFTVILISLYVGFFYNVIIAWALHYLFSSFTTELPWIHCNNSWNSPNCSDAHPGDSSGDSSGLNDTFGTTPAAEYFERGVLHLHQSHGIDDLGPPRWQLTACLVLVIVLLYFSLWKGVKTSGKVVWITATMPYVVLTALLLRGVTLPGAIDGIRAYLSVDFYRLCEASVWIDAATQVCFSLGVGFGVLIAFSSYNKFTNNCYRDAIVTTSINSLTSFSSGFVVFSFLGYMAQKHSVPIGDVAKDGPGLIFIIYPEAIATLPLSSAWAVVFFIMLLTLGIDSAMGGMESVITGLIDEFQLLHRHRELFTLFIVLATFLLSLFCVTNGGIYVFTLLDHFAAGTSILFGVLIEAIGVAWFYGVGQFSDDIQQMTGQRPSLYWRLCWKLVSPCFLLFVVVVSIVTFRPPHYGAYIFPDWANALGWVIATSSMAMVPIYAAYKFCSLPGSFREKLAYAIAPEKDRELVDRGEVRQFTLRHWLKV

Take `COc1cc(C2OCC3C(c4cc(OC)c(OC5OC(CO)C(O)C(O)C5OC5OCC(O)(CO)C5O)c(OC)c4)OCC23)cc(OC)c1O` (single isomer, unassigned; (-)) [SAG, (-)-syringaresinol-4-O-β-D-apiofuranosyl-(1→2)-β-D-glucopyranoside]: in the series on hSERT [1], the “Cell surface expression level of hSERT” value was “did not alter” and the “Total expression level of hSERT” value was “did not alter”. In addition, the “Antidepressant and anxiolytic responses” value in series [2] was “produced the antidepressant and anxiolytic responses”. Besides, the “Effect on cell viability in cell proliferation” value in series [3] was “little effect”. The Ki at hDAT was determined as 20.4 ± 2.13 µM. On hNET, this molecule registered a Ki of 17.4 ± 1.94 µM. At hSERT [4], the Ki was 5.25 ± 0.3 µM; the “Mode of SERT inhibition” value is given as “noncompetitively inhibited SERT”; the “Fold more potency in inhibiting SERT than DAT and NET” value was 3–4 fold; the “Effect of preincubation with cells on the parameters of inhibition” value is “no effect”. Further, the “Vmax of APP+ transport” value on hSERT [4] (in the presence of 5 μM SAG) turned out to be 11.26 ± 0.96 pmol/min/mg. The inhibition at 5 µM on hSERT [5] lay within 40 to 50%. Also, the “Effect on reactivity of Y107C with MTSET” value at SERT mutant Y107C (0.01 mM MTSET, 15 min, 10 μM fluoxetine, 10 μM SAG, 16 μM SBG, compared with MTSET alone) is “exhibited potency to protect Y107C from MTSET inactivation”.
Consider `COc1cc([C@@H]2OC[C@@H]3[C@H]2CO[C@H]3c2cc(OC)c(O[C@H]3O[C@@H](CO)[C@H](O)[C@@H](O)[C@@H]3O)c(OC)c2)cc(OC)c1O[C@H]1O[C@@H](CO)[C@H](O)[C@@H](O)[C@@H]1O` [SBG, (-)-syringaresinol-4,4′-bis-O-β-D-glucopyranoside], for which, in the series with hSERT [1], the “Cell surface expression level of hSERT” value was “did not alter” and the “Total expression level of hSERT” value is “did not alter”. The same molecule gave a Ki on hDAT of 32.3 ± 2.85 µM. The molecule further gave a Ki on hNET of 30 ± 3.61 µM. Further, at hSERT [4], the Ki was 8.51 ± 0.5 µM; the “Mode of SERT inhibition” value is “noncompetitively inhibited SERT”; the “Fold more potency in inhibiting SERT than DAT and NET” value is 3–4 fold; the “Effect of preincubation with cells on the parameters of inhibition” value is given as “no effect”. Further, the “Vmax of APP+ transport” value at hSERT [4] (in the presence of 8 μM inhibitor) was determined as 12.08 ± 1.15 pmol/min/mg. The inhibition at 8 µM on hSERT [5] was in the range of 40 to 50%. Besides, the “Effect on reactivity of Y107C with MTSET” value on SERT mutant Y107C is “exhibited potency to protect Y107C from MTSET inactivation”.
